The text below walks through data of PubChem BioAssay AID1508624 (National Center for Advancing Translational Sciences (NCATS), 2021).

Hit rate of the full screen: of about 48,000 compounds, about 120 (0.25%) were called active. Another 4% or so got no clear call; they are omitted. The call rests on the fitted dose curve; in most records, active means well fitted activation curve with a large enough effect; inconclusive means small, poorly fitted or top-dose-only effect, or another doubt; inactive means no such curve, though single readings can be large or run the other way. Only a part is listed here, and it is no random draw. The source gives no active or inactive call for entries shown without one.
Potency means the concentration at half of the fitted maximal effect.

The experiment is described as follows: Primary qHTS for Identification of Small Molecule Activators of Huntingtin-Antisense Promoter Activity. Further: nearly all actives have a fitted effect of over 55% in size. Conditions: HEK293 HTT-AS promoter firefly luciferase reporter, 24 h; activity change, positive = activation: at 57.5 µM (top of the series), percent change from vehicle, -100% = no light. In a few lines: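 HEK293 Fluc reporter, 2,500 cells/well, 24 h pre-culture; cpds up to 57.5 uM final, 24 h 37 degrees C; Dual-Glo, 10 min RT; normalized vehicle = 0%, zero RLU = -100%.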
For orientation: In qHTS, concentration-response curves come from the screen itself.
`O=C(CSc1nc(-c2cccs2)nc2cc(=O)[nH]n12)Nc1ccccc1Cl`: the activity change, positive = activation is -7.97%.
With `Cc1ccccc1-c1noc(-c2nnn(-c3ccccc3C)c2N)n1`, the Potency was active: 708 nM.
`CCc1nn(CC(=O)NCCOC)c(=O)c2cc3cc(F)ccc3n12`: the activity change, positive = activation is 3.3%.
The same measure, in the same setting: the same measure for `CNc1nc2c(c(=O)n(C)c(=O)n2C)n1CC(O)COc1ccc(OC)cc1` (configuration not stated): -29.1%; for `Cc1nc2ccn(Cc3ccco3)c(=O)c2cc1C(=O)N1CCN(c2ccc(F)cc2)CC1`: -18.6%; for `CCCOc1ccc(C2C(=O)N(C3CCCCCC3)CC(=O)N2CCC)cc1OC` (configuration not stated): -24.6%.
Take `O=C1OC(C(=O)Nc2cc(C(F)(F)F)ccc2Cl)Cc2ccccc21` (configuration not stated): the activity change, positive = activation was -10.4%.
Same read-out and setting: with `O=C(O)c1cc(-c2ccccc2)nc2ccccc12` the figure was inactive: 15.2% [at 116 µM, percent change from vehicle, -100% = no light].
As to `COc1ccc(-c2cc(C(=O)N3CCN(c4ccccc4)CC3)no2)cc1`, the activity change, positive = activation is 13.6%.
Consider `COc1ccc(OC)c(S(=O)(=O)N2CCC(n3c(C)nc4cccnc43)CC2)c1`, for which the activity change, positive = activation is -5.06%.
As to `CCc1ccc(CNC(=O)CCc2c(C)nn(-c3ccc(N4CCCC4)nn3)c2C)cc1`, the activity change, positive = activation was -21.5%.
Still for that read-out and setting: with `CCOc1ccccc1NC(=O)CCc1c(C)nn(-c2ccc(N3CCCCC3)nn2)c1C` the figure was -22.6%; with `Cc1ccc(-c2c3c(=O)n(C)c(=O)n(C)c3c3n2-c2ccccc2NC3c2ccc(C)cc2O)cc1` (configuration not stated), -32.5%; with `COc1ccc(N2CCN(C(=O)c3cc4c(=O)n(Cc5ccco5)ccc4nc3C)CC2)cc1`, -23.7%.
Still for that read-out and setting: the same measure for `CCc1cccc(NS(=O)(=O)c2ccc3c(c2)CC(C)N3C(=O)C2CC2)c1` (configuration not stated): inactive: -78.9%; for `CCc1c(C)c2ccc(O)c(CN3CCN(c4ccc(F)cc4)CC3)c2oc1=O`: -13.8%.
On the same count and under the same terms, with `CCOc1ccc(C2C(=O)N(C3CCCCC3)CC(=O)N2C2CCCC2)cc1OC` (configuration not stated) the figure was -21.9%; with `CNC(=O)c1ccc(Nc2nnc(-c3ccc(C)c(S(=O)(=O)N4CCCCC4)c3)c3ccccc23)cc1`, -9.24%; with `O=C1OC(C(=O)Nc2ccc(Cl)c(C(F)(F)F)c2)Cc2ccccc21` (configuration not stated), -14.7%.
For the molecule `COc1ccc(N2CCN(c3nc4ccc(C)cc4n4nnnc34)CC2)cc1`, the activity change, positive = activation was 2.11%.
As to `COc1ccc2c(c1)cc1c(=O)n(CC(=O)NCCCc3ccccc3)nc(C)n12`, the activity change, positive = activation was -5.14%.
Regarding `COc1ccc(CCNC(=O)CCc2c(C)c3cc4c(C)coc4c(C)c3oc2=O)cc1OC`, the “activity change, positive = activation” value was inactive: -16.2%.
In the case of `CCOC(=O)C1CCCN(CCC(=O)Nc2cccc(C)c2)C1` (configuration not stated), the activity change, positive = activation is -12%.
Take `COc1ccc(C2=C(Nc3ccc(C)c(C)c3)c3ccccc3C2=O)cc1`: the activity change, positive = activation was -22.5%.
With `COc1cc(NC(=O)c2cc3ccccn3n2)cc(OC)c1OC`, the activity change, positive = activation was 22.5%.
Still for that read-out and setting: with `Cc1nc2ccn(Cc3ccco3)c(=O)c2cc1C(=O)N1CCN(c2ccccc2)CC1` the figure was -1.77%.
The same measure, in the same setting: with `O=C(c1cc(-c2ccc(O)cc2)on1)N1CCN(c2ccccc2)CC1` the figure was -7.07%; with `COc1ccc(CN2COc3ccc4c(-c5ccccc5)cc(=O)oc4c3C2)cc1OC`, -22%.
Still for that read-out and setting: the same measure for `Cn1c(=O)n(C)c2cc(N3CCCCC3)c(NC(=O)c3ccc(C(C)(C)C)cc3)cc21`: 3.86%.
Turning to `O=C(NCC1CN(c2ccc(N3CCOCC3=O)cc2)C(=O)O1)c1ccc(Cl)s1` (configuration not stated), the Potency result was “inactive”.
On to `CCOc1cc(CNC(=O)Cn2c(-c3cccs3)cc3cc(F)ccc32)ccc1OC`, for which the “activity change, positive = activation” value is inactive: -29.4%.
Still for that read-out and setting: the same measure for `COc1ccc(S(=O)(=O)Nc2cc3c(cc2NCc2ccccc2)n(C)c(=O)n3C)cc1`: 35.2%; for `Cn1nnnc1SCCCNCc1cccc(OCc2ccccc2Cl)c1`: inactive: -10.7%; for `COc1ccc(C2C(=O)N(C3CCC(C)CC3)CC(=O)N2CCC2=CCCCC2)cc1OC` (configuration not stated): -7.15%.
On the same count and under the same terms, with `Cc1cc(Cl)ccc1NS(=O)(=O)c1ccc2c(c1)CC(C)N2C(=O)C1CCC1` (configuration not stated) the figure was -43.2%; with `COc1cccc(N2CCN(C(=O)c3cc4c(=O)n(Cc5ccco5)ccc4nc3C)CC2)c1`, -10.6%; with `O=C(C1CCN(S(=O)(=O)Cc2ccccc2)CC1)N1CCN(c2cccc(Cl)c2)CC1`, 1.07%.
On to `CN(Cc1ccco1)S(=O)(=O)c1nnc(NC(=O)c2cccc(Cl)c2)s1`, for which the “activity change, positive = activation” value was inactive: -8.37%.
On the same count and under the same terms, the same measure for `Cc1ccc(NC(=O)c2c(C)oc3ccc(O)c(CN4CCCCC4)c23)c(C)c1`: -29.4%.
As to `COc1ccc(NC(=O)c2c(C)oc3ccc(O)c(CN4CCOCC4)c23)cc1`, the activity change, positive = activation was 10.6%.
In the case of `COc1cccc(CNC(=O)CCS(=O)(=O)c2ccc3c(c2)CC(C)N3C(=O)C2CC2)c1` (configuration not stated), the activity change, positive = activation was -17%.
As for `Cc1ccc(C)c(Nc2nnc(-c3ccc(C)c(S(=O)(=O)N4CCCCC4)c3)c3ccccc23)c1`, the activity change, positive = activation is -27.7%.
Same read-out and setting: the same measure for `O=C(NCCc1ccccc1)c1cc(-c2ccc(Cl)c(Cl)c2)on1`: -5.05%.
Still for that read-out and setting: with `Cc1c(CC(=O)NCc2ccccc2Cl)c(=O)oc2cc(O)ccc12` the figure was 3.03%; with `COc1ccc(-c2cc(C(=O)Nc3c(C)n(C)n(-c4ccccc4)c3=O)no2)cc1`, -4.4%; with `O=C(NCCCc1nc2ccccc2n1Cc1ccccc1F)c1ccco1`, -21.5%.
On the same count and under the same terms, the same measure for `COc1ccccc1Nc1nn2c(=O)c3ccc(C(=O)NCCc4ccccc4)cc3nc2s1`: inactive: -73.3%.
Take `COc1ccc(S(=O)(=O)Nc2cccc(-c3ccc(N4CCCC4)nn3)c2)cc1F`: the activity change, positive = activation was determined as 5.81%.
Same read-out and setting: with `COc1cccc(N2CCN(C(=O)c3ccc4nc(N5CCC(C)CC5)sc4c3)CC2)c1` the figure was inactive: -63.7%.
For the molecule `O=C(NCc1cccc(Br)c1)C1CCCCN1S(=O)(=O)c1ccc(F)cc1` (configuration not stated), the activity change, positive = activation was -9.82%.
Turning to `COCC(=O)NCC=Cc1ccc2ncnc(Nc3ccc(Oc4ccc(C)nc4)c(C)c3)c2c1`, the “activity change, positive = activation” value was inactive: -26.3%.
As for `COC(=O)CN1C(=O)CSc2ccc(S(=O)(=O)Nc3ccc(C)c(Cl)c3)cc21`, the activity change, positive = activation was -13.3%.
As for `CNC(=O)c1cnc2sc(N3CCC(C)CC3)nn2c1=O`, the activity change, positive = activation is 52.6%.
Still for that read-out and setting: the same measure for `COc1ccc(OC)c(-c2cc(C(=O)Nc3c(C)nn(Cc4ccc(C)cc4)c3C)no2)c1`: -9.75%; for `Cc1ccccc1CNC(=O)C1CCCCN1S(=O)(=O)c1ccc(F)cc1` (configuration not stated): -6.37%; for `Cc1ccc(NC(=O)c2c(C)oc3ccc(O)c(CN4CCN(Cc5ccccc5)CC4)c23)cc1`: -23.9%.
With `CCOC(=O)c1cccc(NC(=O)CCc2c(C)nn(-c3ccc(N4CCCCC4)nn3)c2C)c1`, the activity change, positive = activation came to 3.77%.
For `COc1ccc(S(=O)(=O)Nc2cccc(-c3ccc(N4CCCCCC4)nn3)c2)cc1OC`, the activity change, positive = activation amounted to 16%.
Still for that read-out and setting: with `CCOc1ccc(CNC(=O)c2ccc(NC(=O)N3CCCCc4ccccc43)cc2)cc1` the figure was inactive: -5.94%; with `Cc1ccc(OCCCCn2c(-c3ccc(Cl)cc3)nc3ccccc3c2=O)cc1`, -0.97%.
On the same count and under the same terms, with `CCC(C)NC(=O)c1cc(-c2cccc(OC)c2)on1` (configuration not stated) the figure was 88%; with `Cc1ccc(S(=O)(=O)Nc2cc3c(cc2NCc2ccccc2)n(C)c(=O)n3C)c(C)c1`, 39.7%.
